Results published in patent US20250034277A1 (SUZHOU ALPHAMAB, published 2025).

Tests used:
human FXIa = molecular target: T1, human FXIa (human, UniProt P03951 in part; P03951 in part); test: BLI, KN060 on Protein A biosensor, hFXIa 400-25 nM, 1:1 model
T1 construct: also called hFXIa

FXI in rabbit plasma [1] = molecular target: FXI in rabbit plasma (rabbit); test: cell-based or functional assay
hApple-Chis = molecular target: T2, hApple-Chis (human, UniProt P03951 in part); test: BLI (Octet K2), KN060 captured on the biosensor, hApple-Chis at 5 concentrations, 1:1 model
T2 construct: range 1-387; also called hApple-Chis protein; human Apple domain; not shown: C-terminal His tag (Chis)

FXI in monkey plasma = FXI in monkey plasma (monkey); test: cell-based or functional assay
FXI in rabbit plasma [2] = molecular target: FXI in rabbit plasma (rabbit); test: cell-based or functional assay; remark: listed apart in the source
rabFXI-Apple-Chis = molecular target: T3, rabFXI-Apple-Chis (rabbit); test: BLI, KN060 on Protein A biosensor, rabFXI-Apple-Chis 50-3.125 nM, 1:1 model
T3 construct: domain: Apple; also called rabbit FXI-apple protein; rabbit FXI

cynoFXI-Apple-Chis = molecular target: T4, cynoFXI-Apple-Chis (cynomolgus); test: BLI, KN060 on Protein A biosensor, cynoFXI-Apple-Chis 50-3.125 nM, 1:1 model
T4 construct: domain: Apple; also called cynomolgus FXI-apple protein; cynomolgus FXI

hFXI-CHis protein = molecular target: T5, hFXI-CHis protein (human, UniProt P03951); test: BLI, KN060 on Protein A biosensor, hFXI-Chis 50-3.125 nM, 1:1 model
T5 construct: FXI is said in the background to be a dimer; nothing is said of the construct; also called human FXI; human FXI factor protein; not shown: C-terminal His tag (CHis)

[3] = molecular target: T6, FXI in standard human plasma (human, UniProt P03951); test: cell-based or functional assay
[4] = molecular target: T6, FXI in standard human plasma; test: cell-based or functional assay; remark: listed apart in the source
FXI in cynomolgus plasma = FXI in cynomolgus plasma (cynomolgus); test: cell-based or functional assay
FXI in rat plasma = FXI in rat plasma (rat); test: cell-based or functional assay
[5] = molecular target: T6, FXI in standard human plasma; test: cell-based or functional assay; remark: listed apart in the source

B1: KN060 (bispecific antibody)
chain: QVQLVESGGGSVQAGGSLRLSCAASGHTYSSNYCMAWFRQAPGKEREGVAAIYSDGSTSYADSVKGRFTISKDNSKNTLYLQMNSLRAEDTAVYYCAATAYEGSWTGKQPLCLLYEYTYWGQGTLVTVSSGAPQVQLVESGGGSVQAGGSLRLSCTASEFTFDDSDMAWYRQAPGNECELVSTITSDGGTYYADSVKGRFTISQDNSKNTMYLQMNSLRAEDTAVYYCAADQWGSAEGDCTSSYPGGYWGQGTLVTVSSGS[… human IgG1 Fc with changes …]
notes: also called anti-FXI bispecific single-domain antibody fusion protein; KN060 stock solution 201113DS
- Kd (human FXIa): 1.88 nM
- koff (human FXIa): 0.00015 s⁻¹
- kon (human FXIa): 80100 M⁻¹ s⁻¹
- APTT ratio in rabbit plasma at 0.1 µg/mL (FXI in rabbit plasma [1]): 0.83 ratio
- APTT ratio in rabbit plasma at 0.5 µg/mL (FXI in rabbit plasma [1]): 0.88 ratio
- APTT ratio in rabbit plasma at 1 µg/mL (FXI in rabbit plasma [1]): 0.93 ratio
- APTT ratio in rabbit plasma at 2 µg/mL (FXI in rabbit plasma [1]): 1.28 ratio
- APTT ratio in rabbit plasma at 5 µg/mL (FXI in rabbit plasma [1]): 1.91 ratio
- APTT ratio in rabbit plasma at 10 µg/mL (FXI in rabbit plasma [1]): 1.96 ratio
- Kd (hApple-Chis): < 0.001 nM
- whole blood APTT in monkey plasma at 0.1 µg/mL (FXI in monkey plasma): 20.8
- whole blood APTT in monkey plasma at 0.5 µg/mL (FXI in monkey plasma): 23.6
- whole blood APTT in monkey plasma at 1 µg/mL (FXI in monkey plasma): 28.5
- whole blood APTT in monkey plasma at 2 µg/mL (FXI in monkey plasma): 57
- whole blood APTT in monkey plasma at 5 µg/mL (FXI in monkey plasma): 69
- whole blood APTT in rabbit plasma at 0.1 µg/mL (FXI in rabbit plasma [2]): 15.3
- whole blood APTT in rabbit plasma at 0.5 µg/mL (FXI in rabbit plasma [2]): 16.2
- whole blood APTT in rabbit plasma at 1 µg/mL (FXI in rabbit plasma [2]): 17.1
- whole blood APTT in rabbit plasma at 2 µg/mL (FXI in rabbit plasma [2]): 23.6
- whole blood APTT in rabbit plasma at 5 µg/mL (FXI in rabbit plasma [2]): 35.1
- whole blood APTT in rabbit plasma at 10 µg/mL (FXI in rabbit plasma [2]): 36.1
- Kd (rabFXI-Apple-Chis): 0.183 nM
- koff (rabFXI-Apple-Chis): 5.82e-05 s⁻¹
- kon (rabFXI-Apple-Chis): 317000 M⁻¹ s⁻¹
- koff (cynoFXI-Apple-Chis): 4.82e-08 s⁻¹
- kon (cynoFXI-Apple-Chis): 318000 M⁻¹ s⁻¹
- Kd (hFXI-CHis protein): 0.674 nM
- IC50 value (ng/mL) of the inhibitory effect on FXI activity [3]: 650 ng/mL
- APTT ratio in standard human plasma at 0.1 µg/mL [4]: 1 ratio
- APTT ratio in standard human plasma at 0.5 µg/mL [4]: 1.12 ratio
- APTT ratio in standard human plasma at 1 µg/mL [4]: 1.3 ratio
- APTT ratio in standard human plasma at 2 µg/mL [4]: 2.19 ratio
- APTT ratio in standard human plasma at 5 µg/mL [4]: 3.53 ratio
- APTT ratio in standard human plasma at 10 µg/mL [4]: 3.71 ratio
- APTT ratio in cynomolgus plasma at 0.1 µg/mL (FXI in cynomolgus plasma): 1 ratio
- APTT ratio in cynomolgus plasma at 0.5 µg/mL (FXI in cynomolgus plasma): 1.13 ratio
- APTT ratio in cynomolgus plasma at 1 µg/mL (FXI in cynomolgus plasma): 1.36 ratio
- APTT ratio in cynomolgus plasma at 2 µg/mL (FXI in cynomolgus plasma): 2.73 ratio
- APTT ratio in cynomolgus plasma at 5 µg/mL (FXI in cynomolgus plasma): 3.3 ratio
- APTT ratio in cynomolgus plasma at 10 µg/mL (FXI in cynomolgus plasma): 3.38 ratio
- APTT ratio in rat plasma at 0.5 µg/mL (FXI in rat plasma): 0.94 ratio
- APTT ratio in rat plasma at 1 µg/mL (FXI in rat plasma): 0.97 ratio
- APTT ratio in rat plasma at 2 µg/mL (FXI in rat plasma): 1.07 ratio
- APTT ratio in rat plasma at 5 µg/mL (FXI in rat plasma): 1.55 ratio
- APTT ratio in rat plasma at 10 µg/mL (FXI in rat plasma): 1.67 ratio
- APTT ratio in rat plasma at 30 µg/mL (FXI in rat plasma): 1.76 ratio
- whole blood APTT in standard human plasma at 0.1 µg/mL [5]: 22.9
- whole blood APTT in standard human plasma at 0.5 µg/mL [5]: 25.8
- whole blood APTT in standard human plasma at 1 µg/mL [5]: 30
- whole blood APTT in standard human plasma at 2 µg/mL [5]: 50.4
- whole blood APTT in standard human plasma at 5 µg/mL [5]: 81.1
